In all, about 150,000 compounds went through this assay and about 540 (0.36%) showed an effect of 50% or more. The list shows a part of the results.
These compounds were tested on Plasmodium falciparum (assay: Primary screen in NF54 nanoGlo assay, in single point, at 2uM, 72h; a lower Z score goes with more inhibition). Details: timepoint 72 hour.
Assay type: functional, Erythrocyte

Row | Structure (SMILES) | % Inhibition | Z score
1 | CCCC[C@H](NCc1ccccc1OCCCN1CCN(C)CC1)c1cccnc1 | 13% | -2.64
2 | FC(F)COc1ncnc2c1CCCC2 | 2% | -0.35
3 | Cc1nccc([C@H]2CCCN(c3ncnc4[nH]ccc34)C2)n1 | -5% | 1.15
4 | OCCN1CCN(C2CCN(c3cc(-c4ncon4)ccn3)CC2)CC1 | -5% | 0.75
5 | C[C@@H](c1cccc(-c2ccc(C3(O)CCNCC3)cc2)c1)N1CCCC1 | -8% | 1.14
6 | CCCO[C@@H](C)CNC(=O)c1ccc(C#CC(C)(C)O)cc1 | -3% | 0.5
7 | Nc1cncc(-c2ccc3[nH]nc(N)c3c2)c1 | -1% | 0.17
8 | Cc1nc(CN(CCN(C)C)C(=O)[C@]2(C)CCc3c(C)c(O)c(C)c(C)c3O2)c[nH]1 | -11% | 1.98
9 | COc1ccc(-c2cc(C(=O)NC3CCCC(C)C3C)n[nH]2)cc1S(=O)(=O)N1CCOCC1 (configuration not stated) | 8% | -1.45
10 | O=C(NC1CCN2CCCCC12)N1CC2CN3CCCCC3C2C1 (configuration not stated) | -17% | 2.99
11 | CC(C)C(=O)N1CCC[C@H](NCc2cc3ccc(Cl)cc3nc2O)C1 | -4% | 0.77
12 | FC(F)(F)CCCN[C@H]1CCCN(CC2CCCCC2)C1 | -8% | 1.3
13 | Cc1ccc(C)c(NC(=O)c2ccc(Nc3nc(-c4ccccc4)c4ccc(Cl)cc4n3)cc2)c1 | -7% | 1.17
14 | O=C([C@@H]1NCCc2[nH]cnc21)N1CCN(c2nsc3ccccc23)CC1 | 7% | -1.19
15 | O=C([C@@H]1CC=CCC1)N1CCC(N2CCC(Oc3nccs3)CC2)CC1 | -1% | 0.23
16 | FC(F)(F)c1nc(NC[C@H]2CCN(CCc3ccccc3)C2)c2[nH]cnc2n1 | -1% | 0.24
17 | Cc1c(CNC(=O)Cc2c[nH]c3ccccc23)sc2nc(-c3ccc(F)cc3)cn12 | -8% | 1.45
18 | CC(CC1CCCN1C(=O)OC(C)(C)C)Nc1ccc(N2CCN(C)CC2)cc1 (configuration not stated) | -2% | 0.41
19 | c1cnc2ccc(CN(Cc3cncnc3)[C@H]3CCCNCC3)cc2c1 | -12% | 1.82
20 | Cc1ccc(NC(=O)c2cc(-c3ccccc3)[nH]n2)c(-c2nc(C3CC3)n[nH]2)c1 | 17% | -2.53
21 | O=C(NC1CCNCC1O)c1cccc(CN2CCCCCC2)c1 (configuration not stated) | -4% | 0.75

Row | Structure (SMILES) | % Inhibition | Z score
22 | O=C(CCc1nnc(-c2ccsc2)o1)Nc1cnccc1N1CCCCC1 | -5% | 0.93
23 | CCN1CCC[C@@H]1CN(CCN(C)C)C(=O)c1ccc(-c2cncnc2)cc1F | 2% | -0.24
24 | O=C(NCCNc1cnccn1)c1ccc(N2CCCCC2)c(S(=O)(=O)N2CCCCC2)c1 | -14% | 2.15
25 | CN1CCC(Nc2nc(C(F)F)nc3ccc(Cl)cc23)CC1 | -11% | 2.03
26 | OCC1CCCN1CC1CCCN1c1ncnc2scc(-c3ccccc3)c12 (configuration not stated) | -1% | 0.14
27 | Cc1ccc(-n2cc(S(=O)(=O)N3CCCC3)cn2)cc1S(=O)(=O)N1CCCC1 | -4% | 0.63
28 | c1cnc(N2CCCN(C3CCN(c4ccc5c(c4)OCO5)CC3)CC2)nc1 | -14% | 2.69
29 | Fc1cc(CN2C3CCNCC2CC3)ccc1-n1ccnc1 (configuration not stated) | 8% | -1.45
30 | CCN(C)C1(CNc2cc(C)nc(N)n2)CCCC1 | -8% | 1.63
31 | c1ccc(N[C@H]2CC[C@H](Nc3nc(-c4cccnc4)nc4c3CCC4)CC2)nc1 | 11% | -1.69
32 | C[C@H]1CCCCN1Cc1cccc(NC(=O)NCc2cccc3[nH]ccc23)c1 | 9% | -1.66
33 | CC(C)N1CCC(N2CCC[C@H]2C(=O)Nc2cccc(-n3cccn3)c2)CC1 | -4% | 0.86
34 | Cc1cc(CNc2ccc3[nH]ncc3c2)ccc1-n1cncn1 | -2% | 0.37
35 | CCCN1CCC(NCc2cc(Br)c3c(c2)OCCCO3)CC1 | 7% | -1.41
36 | O=C1C[C@H](NCc2cc(O)c3ccccc3n2)CN1Cc1ccc(F)cc1 | 7% | -1.18
37 | N#Cc1cccc(Cl)c1N1CCC(O)(CN)CC1 | -3% | 0.43
38 | CC(C)C(NC1CCOCC1)C(=O)N1CCCC2(CC=CCC2)C1 (configuration not stated) | -8% | 1.63
39 | COCCCNC(=O)CN1C[C@H](C)Oc2c(F)cccc21 | -6% | 1.19
40 | OCCN1CCN(C2CCN(Cc3cc(C4CCCCC4)no3)CC2)CC1 | -3% | 0.41
41 | N#Cc1ccc(NCC(=O)NCCS(=O)(=O)C(F)(F)F)cc1 | -9% | 1.81

Reference: ChEMBL document CHEMBL5308541, “MAIP: An Open-Source Tool to Enrich High-Throughput Screening Output and Identify Novel, Druglike Molecules with Antimalarial Activity” (ACS Med Chem Lett, 2023)
